Laboratory results reported in PubChem BioAssay AID1508642 (National Center for Advancing Translational Sciences (NCATS), 2021).
Screen size: about 43,000 compounds; about 200 (0.47%) were called active. About 12% were inconclusive and are not listed. Calls follow the shape of the dose curve; as a rule, active = well fitted cell-killing curve with a large enough effect; inconclusive = small, poorly fitted or top-dose-only effect, or effect the other way; inactive = flat fitted curve, though single readings scatter. The list shows a part of the results.

Assay: Cell viability qHTS assay in S16 Pmp22-F2sN cells; also: nearly all actives have a fitted effect of over 65% in size
Conditions: S16 Pmp22-F2sN Schwann cells (luciferase reporters placed in the Pmp22 gene) viability, CellTiter-Glo, 24 h; series mostly up to 57.5 µM; activity change, negative = cytotoxicity: at the top concentration
In short: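 Luminescence from CellTiter-Glo, read by CCD camera after a 15 min room-temperature incubation, served as the viability signal. Reporter Schwann cells (S16 Pmp22-F2sN) had been treated with pin-transferred compounds for 24 h at 37C.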
% is scaled to controls: 0 for no effect and ±100 for the full control effect.

Row | SMILES | activity change, negative = cytotoxicity
1 | Fc1ccc(CNc2nc3c(-c4ccc(F)cc4)nnn3c3ccccc23)cc1 | inactive: 4.96%
2 | CC1=C(C(=O)Nc2ccc(C)cc2)C(c2ccccc2Cl)n2nnnc2N1 (configuration not stated) | inactive: 15.8%
3 | CCOc1ccc(CNC(=O)COc2cc(=O)n(C)c3ccccc23)cc1 | inactive: 8.76%
4 | CCOc1ccc(C(=O)NCc2nc(-c3ccc(Cl)cc3)no2)cc1OCC | inactive: -25.2%
5 | Cc1cccc(C)c1-n1ncc(C(=O)NCCN2CCN(C)CC2)c1C1CCN(C(=O)OC(C)(C)C)CC1 | inactive: 21%
6 | CCN(Cc1ccccc1)S(=O)(=O)c1ccc(F)c(C(=O)Nc2cc(C)ccc2OC)c1 | inactive: 2.35%
7 | Cc1cccc(NC(=O)C2CCN(S(=O)(=O)c3c(C)noc3/C=C/c3ccco3)CC2)c1 | inactive: 2.5%
8 | CCOc1ccc(NC(=O)CCNS(=O)(=O)c2cccs2)cc1 | inactive: 11.3%
9 | Cc1ccc(C)c(S(=O)(=O)n2nc(C)c(S(=O)(=O)N3CCCCCC3)c2C)c1 | inactive: 5.75%
10 | COc1ccc(NC(=O)CCCN2C(=O)CCn3nc(-c4cn(C)c5ccccc45)cc32)cc1 | inactive: -23.7%
11 | Cc1cc(Nc2ccccc2O)nc(C)n1 | inactive: 2.18%
12 | COc1ccc(CNC(=O)C2CCN(C(=O)N3CCOc4ccc(Cl)cc43)CC2)cc1 | inactive: -25%
13 | Cc1ccc2c(=O)c(C(=O)c3ccc(Cl)cc3)cn(CC(=O)Nc3ccc4c(c3)OCCO4)c2n1 | inactive: -20%
14 | Cc1cccc(C(=O)NCc2nc3ccccc3n2Cc2ccccc2Cl)c1 | inactive: -3.45%
15 | CCOc1ccccc1CNC(=O)c1oc2c(c1C)-c1nn(Cc3cccc(Cl)c3)cc1CC2 | inactive: -29.5%
16 | Cc1ccc(NC(=O)C2CCCN2S(=O)(=O)c2cccc3cccnc23)c(C)c1 (configuration not stated) | inactive: 0.148%
17 | O=C(Nc1cccc(OCc2cc(=O)n3ccccc3n2)c1)Nc1cccc(C(F)(F)F)c1 | inactive: 6.19%
18 | O=C(Cc1ccc(NC(=O)N2CCSc3ncccc32)cc1)NCc1cccc(Cl)c1 | inactive: -4.58%
19 | CCOc1ccc(CNC(=O)C2=Cc3cccc(OC)c3OC2)cc1 | inactive: 20.6%
20 | COc1ccc(CCNC(=O)C2c3ccccc3C(=O)N2Cc2ccccc2)cc1OC (configuration not stated) | inactive: -1.1%
21 | COc1cccc(NC(=O)Cn2c(=O)n(Cc3ccc(C(=O)NCc4ccc(C)cc4)cc3)c(=O)c3ccccc32)c1 | inactive: 17%
22 | CCOC(=O)c1c(C)n(-c2ccccc2)c2ccc(OC(=O)c3c(F)cccc3F)cc12 | inactive: 10.1%
23 | CCOc1ccc(Cn2c(CNS(=O)(=O)c3ccc(C(C)(C)C)cc3)nc3cccnc32)cc1 | inactive: 2.93%
24 | N#Cc1ccc(NC(=O)C2Cc3ccccc3CN2S(=O)(=O)c2ccc(F)cc2)cc1 (configuration not stated) | inactive: -7.95%

Row | SMILES | activity change, negative = cytotoxicity
25 | O=C(COc1ccc(F)cc1)Nc1ccc2nc(SCCOc3ccccc3)sc2c1 | inactive: 17.7%
26 | COc1ccc(OC)c(CC2C(=O)Nc3ccc(Br)cc32)c1 (configuration not stated) | inactive: -19.1%
27 | COC(=O)c1cc2sccc2n1Cc1ccc(F)cc1Cl | inactive: 4.56%
28 | CCOC(=O)c1c(C)oc2ccc(N(C(C)=O)S(=O)(=O)c3c(C)cc(C)cc3C)cc12 | inactive: -0.542%
29 | Cc1cc(F)ccc1S(=O)(=O)Nc1cc2c(C(=O)O)c(C)oc2c2ccccc12 | inactive: 1.29%
30 | Cc1cc(N2CCN(c3cc(Cl)ccc3C)CC2)n2nc(-c3ccccc3)nc2n1 | inactive: -13.8%
31 | CCN(CC)CCNC(=O)c1cn(CC)c2ccc(S(=O)(=O)N3CCc4ccccc4C3)cc2c1=O | inactive: -0.371%
32 | CCOC(=O)c1cc(-c2ccc(C)cc2)n(CCC(=O)NCCc2ccc(C)cc2)c1C | inactive: 23.8%
33 | CCC(=O)N1CCc2cc(Br)cc(S(=O)(=O)CCC(=O)Nc3ccc(Cl)cc3)c21 | inactive: 0.0598%
34 | Cc1cccc(C)c1NC(=O)CCC(=O)N1Cc2ccccc2Oc2ncccc21 | inactive: 1.04%
35 | COc1cc(-c2cc3n(C)c(C)c(CCC(=O)NC4CCCCC4)c(=O)n3n2)cc(OC)c1OC | inactive: 16.3%
36 | CCC(=O)N1CCc2cc(Br)cc(S(=O)(=O)N3CCN(c4cc(C)ccc4C)CC3)c21 | inactive: -1.28%
37 | O=C(NC1CCN(Cc2ccccc2)CC1)c1ccc(Cn2c(=O)c3ccccc3n(Cc3cccc(F)c3)c2=O)cc1 | inactive: 10.5%
38 | COCCn1c(=N)c(C(=O)NC2CCCC2)cc2c(=O)n3cc(C)ccc3nc21 | inactive: 16.5%
39 | O=C(Nc1ccccc1C(=O)OCc1cc(=O)n2ccsc2n1)c1ccccc1Cl | inactive: 0.483%
40 | CCOC(=O)CCNC(=O)N1CCN(S(=O)(=O)c2ccc3c(ccn3C)c2)CC1 | inactive: 0.0973%
41 | Cc1ccc(CNC(=O)Cn2c(-c3cccs3)cc3cc(Cl)ccc32)cc1 | inactive: -28.9%
42 | Cc1ccc(CNC(=O)c2ccc3c(c2)NC(=O)C(CS(=O)(=O)Cc2cccc(F)c2)N3)cc1 (configuration not stated) | inactive: -29.6%
43 | Cc1ccc(N2C(=O)C(CC(=O)Nc3ccc(F)cc3)N(Cc3ccc4c(c3)OCO4)C2=O)cc1 (configuration not stated) | inactive: 6.01%
44 | CC(=O)c1ccc(NC(=O)c2cc3c(=O)oc4ccc(C)cc4c3s2)cc1 | inactive: -14.6%
45 | Cc1ccc(Sc2ccc(N3CCC(C(=O)Nc4ccc(Cl)cc4)CC3)nn2)cc1 | inactive: 14.8%
46 | CCc1ccc(C(=O)c2cn(CC(=O)NCc3ccc(C)cc3)c3nc(C)ccc3c2=O)cc1 | inactive: 5.01%
47 | Cc1cccc(N2C(=O)C(CC(=O)Nc3cccc(F)c3)N(CCc3ccncc3)C2=O)c1 (configuration not stated) | inactive: 1.88%
